Data on 6 molecules can be found in PMC3197643 (2011).

Residue numbers refer to the chain shown, from its start. Where two headings read alike, the source gives them in different places. No constants are given. Whether binding was seen depends on the method and setting. For part of these data: Binding seen in cells or lysates may run through a third protein. Some binding calls cover weakened binding; strength is not graded here. Where a sequence is shown, tags or fusion partners need not be part of it.

In experiment [1] the target is T1, OX1R CTD T409, 412A, OX1R CTD with T409 and T412 mutated into alanine residues, fused to GAL4 DNA binding domain (mouse) (UniProt P58307).
T1 sequence: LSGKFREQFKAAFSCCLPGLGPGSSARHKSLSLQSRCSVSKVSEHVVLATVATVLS
Description: two-hybrid; co-transformation of pGBKT7-OX1R CTD or -OX2R CTD (wild-type or mutants) with pGADT7-Dynlt1 or -Dynlt3 (wild-type or mutants); HIS3 test in AH109 with 1 to 25 mM 3-AT; ONPG liquid β-galactosidase assay in Y187.

The target of experiment [2] is T2, OX1R CTD Δ397–416, OX1R CTD lacking the last 20 a.a., fused to GAL4 DNA binding domain (mouse) (UniProt P58307).
T2 sequence: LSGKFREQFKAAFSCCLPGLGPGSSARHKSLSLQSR
Described as above.

In experiment [3] the target is T3, OX1R CTD Δ407–416, OX1R CTD lacking the last 10 a.a., fused to GAL4 DNA binding domain (mouse) (UniProt P58307).
T3 sequence: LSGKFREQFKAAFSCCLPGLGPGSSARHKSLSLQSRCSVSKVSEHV
Described as above.

Experiment [4] addresses T4, OX2R CTD Δ433–460, OX2R CTD lacking the extra 28 a.a. compared to OX1R CTD, fused to GAL4 DNA binding domain (mouse) (UniProt P58308).
T4 sequence: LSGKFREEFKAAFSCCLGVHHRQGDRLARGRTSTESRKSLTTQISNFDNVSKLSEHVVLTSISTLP
Described as above.

Experiment [5] has as its target T5, OX2R CTD, carboxy-terminal domain of OX2R (a.a. 367–460), fused to GAL4 DNA binding domain (mouse) (UniProt P58308).
T5 sequence: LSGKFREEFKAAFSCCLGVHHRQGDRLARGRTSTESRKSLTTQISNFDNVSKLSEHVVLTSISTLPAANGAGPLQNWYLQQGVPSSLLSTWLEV
Described as above.

In experiment [6] the target is T6, Full-length OX1R-EGFP fusion protein (carboxy-terminal tagged OX1R-GFP) (mouse) (UniProt P58307).
T6 sequence: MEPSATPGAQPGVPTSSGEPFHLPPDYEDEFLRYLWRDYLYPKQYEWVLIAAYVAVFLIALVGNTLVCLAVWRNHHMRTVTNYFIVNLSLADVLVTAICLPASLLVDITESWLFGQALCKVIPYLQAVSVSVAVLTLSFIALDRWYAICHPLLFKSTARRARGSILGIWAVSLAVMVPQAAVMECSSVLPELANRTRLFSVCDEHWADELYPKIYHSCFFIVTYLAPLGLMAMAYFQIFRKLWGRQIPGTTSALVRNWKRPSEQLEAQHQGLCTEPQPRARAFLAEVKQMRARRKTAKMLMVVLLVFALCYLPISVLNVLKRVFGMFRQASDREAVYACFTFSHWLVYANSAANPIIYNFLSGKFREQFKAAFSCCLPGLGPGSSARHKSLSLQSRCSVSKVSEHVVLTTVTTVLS
As to the kind of experiment: co-IP; HEK293 cells transfected with pCS2-Myc-Dynlt1 and pEGFP-N1-OX1R; whole-cell lysates, IP with anti-GFP, IB with anti-Myc.

For experiment [7], the target named is T7, V5-OX1R lacking the last 10 amino acids (Δ407–416) (mouse) (UniProt P58307).
T7 sequence: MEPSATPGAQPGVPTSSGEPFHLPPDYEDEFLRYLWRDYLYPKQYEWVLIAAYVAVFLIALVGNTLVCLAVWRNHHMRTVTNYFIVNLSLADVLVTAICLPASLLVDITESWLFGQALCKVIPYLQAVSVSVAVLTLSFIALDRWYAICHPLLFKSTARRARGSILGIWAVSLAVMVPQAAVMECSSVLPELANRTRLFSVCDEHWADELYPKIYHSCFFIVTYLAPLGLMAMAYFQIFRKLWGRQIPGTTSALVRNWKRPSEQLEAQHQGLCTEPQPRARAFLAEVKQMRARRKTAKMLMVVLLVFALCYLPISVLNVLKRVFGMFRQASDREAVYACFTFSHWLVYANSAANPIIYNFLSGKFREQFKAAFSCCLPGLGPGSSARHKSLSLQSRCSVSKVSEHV
Description: co-IP; HEK293 cells transfected; whole-cell lysates in IP buffer (1% NP-40, 150 mM NaCl, 10 mM sodium phosphate), IP with anti-V5 and protein G-Sepharose at 4°C, IB with anti-Myc; in Fig. 5A cells stimulated with OX-A or vehicle for 30 min.

In experiment [8] the target is T8, V5-OX1R mutant T409A, T412A (mouse) (UniProt P58307).
T8 sequence: T6 sequence with T409A, T412A
Described as above.

In experiment [9] the target is T9, V5-OX1R Δ364–416, V5-OX1R lacking its CTD (mouse) (UniProt P58307).
T9 sequence: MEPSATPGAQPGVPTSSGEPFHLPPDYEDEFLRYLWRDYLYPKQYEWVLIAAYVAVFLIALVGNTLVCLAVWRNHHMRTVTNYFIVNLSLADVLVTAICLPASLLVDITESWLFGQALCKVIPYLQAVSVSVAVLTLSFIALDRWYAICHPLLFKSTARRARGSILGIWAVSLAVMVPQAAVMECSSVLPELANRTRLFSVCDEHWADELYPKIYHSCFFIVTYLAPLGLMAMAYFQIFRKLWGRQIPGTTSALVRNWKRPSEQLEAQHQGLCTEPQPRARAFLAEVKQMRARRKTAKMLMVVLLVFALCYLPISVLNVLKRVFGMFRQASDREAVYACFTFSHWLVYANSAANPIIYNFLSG
The description is as above.

Experiment [10] addresses T10, V5-tagged full-length OX1R (mouse) (UniProt P58307).
T10 sequence: T6 sequence
Described as above.

Experiment [11] has as its target T1, OX1R CTD T409, 412A, OX1R CTD with T409 and T412 mutated into alanine residues, fused to GAL4 DNA binding domain (mouse). As to the kind of experiment: two-hybrid; co-transformation of pGBKT7-OX1R CTD or -OX2R CTD (wild-type or mutants) with pGADT7-Dynlt1 or -Dynlt3 (wild-type or mutants); HIS3 test in AH109 with 1 to 25 mM 3-AT; ONPG liquid β-galactosidase assay in Y187. This is another data set of the same source.

The target of experiment [12] is T5, OX2R CTD, carboxy-terminal domain of OX2R (a.a. 367–460), fused to GAL4 DNA binding domain (mouse). The description is as above. This is another data set of the same source.

For the molecule “Dynein light chain Tctex-type 1 (Dynlt1) fused to GAL4 activation domain (from UniProt P51807 1-113)”, the binding result was “binds” in experiment [1]; “no binding” in experiment [2]; “binds weakly” in [3]; “binds” in [4]; “binds weakly” in [5].

“Dynlt1 Δ1–14, Dynlt1 lacking a.a. 1–14, fused to GAL4 activation domain (from UniProt P51807 15-113) (domain or fragment)”: the binding entry in experiment [5] is reported as “binds”.

As to “Myc-tagged Dynlt1 (from UniProt P51807 1-113)”, the binding result in experiment [6] is “binds”; in [7] it was “no binding”; in [8], “binds”; in experiment [9], “no binding”; in experiment [10], “binds”.

Consider “Myc-tagged Dynlt1 lacking the amino-terminus (Δ1–14) (from UniProt P51807 15-113) (domain or fragment)”, for which the binding result in experiment [10] is recorded as “binds”.

For “Myc-tagged Dynlt1 lacking the carboxy-terminus (Δ91–113) (from UniProt P51807 1-90) (domain or fragment)”, the binding entry in experiment [10] is on record as “binds”.

B1: Dynein light chain Tctex-type 3 (Dynlt3) fused to GAL4 activation domain (protein, UniProt P56387 1-116)
chain: MEGYQRPCDEVGFNADEAHNIVKECVDGVLGGNDYNENNINQWTASIVEQSITHLVKLGKAYKYIVTCAVVQRSPYGFHTASSCFWDTTSDGTCTIRWENRTMNCIVNVFAVAIVL
On to B1, for which the binding entry is reported as “binds weakly” in [11] and “no binding” in [12].
